Source: the supplement of paper PMC10126150
Values marked as one replicate rest on one cluster of the flow cell; about a third of the high ones do not repeat.

system: ATP; assay: switch fluorescence ratio, 500 uM ATP over buffer (Cy3 cluster intensity, sum of 5 cycles each) (fold (ratio)); higher = stronger signal-on switching upon ATP binding; sequences stand for … in TCGTCGGCAGCGTCAGATGTGTATAAGAGACAGTTTTTTTTTTTTTTTTTTTTTTTTT…TC; conditions: aptamer strand: ATP DNA aptamer (quencher-CACCTGGGGGAGTATTGCGGAGGAAGG + anchor), 100 nM annealed; ATP concentration: 500 uM; one replicate
Outline: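 Imaging in selection buffer was followed by imaging after 15 min with 500 uM ATP at 22 °C, for Cy3-labelled switching-strand clusters annealed to 100 nM quencher-labelled ATP aptamer on a modified Illumina MiSeq flow-cell. Five of these buffer/ATP cycles ran, separated by NaOH stripping and re-annealing. The fluorescence ratio per cluster is summed target-cycle over summed buffer-cycle Cy3 intensity, averaged per switch-domain sequence; clusters outside 100-1000 RFU were removed.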
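Note: ATP exposure 15 min at 22 °C before imaging.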

Sequence | switch fluorescence ratio
TGATATTTCG | 0.94
TGATCCTCAC | 1.08
TGATCGAGCC | 1.04
TGATCGATGG | 1.01
TGATCGGGCC | 1.05
TGATCGTGCG | 0.94
TGATCTCAGG | 1.02
TGATGAAAGC | 1.07
TGATGACTTT | 1.18
TGATGAGAA | 0.991
TGATGAGTTA | 1.01
TGATGATCAG | 1.01
TGATGCAGCG | 1.05
TGATGCCAGG | 1.19
TGATGCTAAG | 1.01
TGATGCTTG | 1.01
TGATGCTTGC | 0.989
TGATGGGGC | 1.08
TGATGGTTG | 0.957
TGATGTAGTA | 1
TGATGTGGG | 0.956
TGATTAAGC | 0.996
TGATTAATTG | 0.996
TGATTATGTA | 1.03
TGATTGAC | 1.01
TGATTGATA | 1.01

Sequence | switch fluorescence ratio
TGATTTCGGG | 1
TGATTTCTGA | 0.99
TGATTTGGAA | 1.02
TGATTTTGCG | 1.04
TGATTTTGTA | 0.977
TGCAAAATGT | 1.02
TGCAAACTCA | 1.55
TGCAAATCGG | 1.03
TGCAAATGGC | 1.08
TGCAAGACCT | 1.43
TGCAAGGGCT | 1.02
TGCAAGGGGA | 0.984
TGCAAGTAAC | 1.57
TGCAATAAGA | 1.16
TGCAATAGCT | 1.14
TGCAATTCG | 1.38
TGCACAGACT | 1.1
TGCACGGTTT | 0.992
TGCACTTTTT | 1.05
TGCAGCACGA | 1.32
TGCAGCCCCG | 1.06
TGCAGCTTGA | 1.13
TGCAGGACGC | 1.08
TGCAGGATG | 1.01
TGCAGGTGAA | 1.53
TGCAGTACT | 5.7

Sequence | switch fluorescence ratio
TGCAGTTGG | 1.14
TGCATAATGG | 1.01
TGCATACAAA | 0.976
TGCATATTGG | 0.984
TGCATCCAGG | 1.64
TGCATGATGG | 1
TGCATGCAGT | 0.995
TGCATTAGAA | 0.99
TGCATTCCAT | 1.03
TGCATTCGCT | 1.01
TGCCAACGTC | 1.03
TGCCAATTTC | 1.03
TGCCAGTACT | 1.05
TGCCAGTCAT | 0.991
TGCCATCAAC | 1.01
TGCCATTTGG | 0.959
TGCCCACAGC | 0.999
TGCCCTCTAA | 1.04
TGCCCTGGTT | 1.03
TGCCGAAATT | 1.06
TGCCGATGAG | 1.04
TGCCGCAGTG | 1.23
TGCCGCCAGT | 1.04
TGCCGCCGGC | 1
TGCCGGCCGG | 1.06
